From PubChem BioAssay AID1159614 (National Center for Advancing Translational Sciences (NCATS), 2016)
About 65 (0.1%) of roughly 45,000 compounds were called active. The call rests on the fitted dose curve; in most records, active means well fitted activation curve with a large enough effect; inconclusive means small, poorly fitted or top-dose-only effect; inactive means no such curve, though single readings can be large or run the other way. The list shows a part of the results.

The compounds below were run against Galactocerebrosidase (Homo sapiens) (UniProt P54803) (assay: A Novel Cell-Based Assay to Identify Small Molecules for B -Galactocerebrosidase). Details: 145M-Twi-hGALC-G270D cells (Twitcher mouse brain line with human GALC G270D), HMU-beta-Gal fluorescence, 48 h; series mostly up to 57.5 µM; activation: at the top concentration.
In short: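 Mutant human GALC (G270D), stably expressed in a Twitcher mouse brain cell line lacking endogenous GALC, is measured in live-treated cells via 6-hexadecanoylamino-4-methylumbelliferyl-β-galactoside hydrolysis (0.1 mM final, pH 5.2) with fluorescent detection.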
Further: 0% is about no effect; nearly all actives have a fitted effect of over 65% in size.

Sequence of UniProt P54803 (P54803 whole entry, looked up): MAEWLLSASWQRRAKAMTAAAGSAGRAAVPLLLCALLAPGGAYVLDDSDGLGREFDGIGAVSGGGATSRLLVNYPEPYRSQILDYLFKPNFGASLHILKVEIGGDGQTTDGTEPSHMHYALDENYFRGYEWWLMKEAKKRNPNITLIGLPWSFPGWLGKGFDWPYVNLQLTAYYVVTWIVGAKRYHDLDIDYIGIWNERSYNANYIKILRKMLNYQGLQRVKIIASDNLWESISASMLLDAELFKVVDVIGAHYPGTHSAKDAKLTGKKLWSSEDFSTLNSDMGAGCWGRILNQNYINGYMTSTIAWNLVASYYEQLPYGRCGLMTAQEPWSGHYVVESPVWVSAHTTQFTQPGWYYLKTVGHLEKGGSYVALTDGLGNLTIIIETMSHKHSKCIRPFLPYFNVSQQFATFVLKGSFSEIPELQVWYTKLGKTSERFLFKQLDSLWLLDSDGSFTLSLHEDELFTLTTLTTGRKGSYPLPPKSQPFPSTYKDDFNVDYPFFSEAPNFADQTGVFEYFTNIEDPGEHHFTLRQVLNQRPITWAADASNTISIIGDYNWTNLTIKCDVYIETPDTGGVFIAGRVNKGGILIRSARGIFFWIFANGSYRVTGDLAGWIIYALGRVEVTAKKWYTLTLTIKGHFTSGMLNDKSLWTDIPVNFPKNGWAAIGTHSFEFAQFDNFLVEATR

activation, inactive:
O=C(NCC(c1cccs1)S(=O)(=O)c1cccs1)c1cccc(F)c1 (configuration not stated) -3.59%, Cc1ccc(CNC(=O)c2ccc(Cn3c(=O)c4ccccc4n(CC(=O)Nc4c(C)cc(C)cc4C)c3=O)cc2)cc1 -14.8%, O=c1oc2c3c(ccc2c2ccccc12)OCN(Cc1ccc(Cl)cc1)C3 -12.8%, COc1ccc(-c2nc3ccccc3n3c(-c4ccccc4)c4c(=O)n(C)c(=O)n(C)c4c23)cc1OC -13.9%, c1cnc(N2CCN(c3ncc4c(n3)CCNC4)CC2)nc1 -15.1%, COc1ccc(OC)c(-n2nnc(-c3nc(-c4cc(OC)c(OC)c(OC)c4)no3)c2C)c1 -12.1%, CN1C(=O)c2ccccc2Sc2ccc(NC(=O)N3CCN(c4ccccc4)CC3)cc21 -4.18%, CC(=O)N1c2ccccc2C(C)(c2ccc(C)cc2)CC1(C)C (configuration not stated) -14.3%, O=C(NCc1ccccc1)c1cccn1-c1nnc(N2CCCC2)s1 -16.2%, COCCn1c(=O)[nH]c2cc(C(=O)N3CCN(c4ccccc4)CC3)ccc2c1=O 3.57%, COc1cc2c(cc1OC)C(COc1ccc3c(C)cc(=O)oc3c1)N(C(=O)c1ccccc1C)CC2 (configuration not stated) -3.64%, COc1ccc(-n2nnnc2C2CCN(S(=O)(=O)c3ccc(C)cc3)CC2)cc1 -6.05%, CC1=C(c2ccc(C)cc2)S(=O)(=O)N(Cc2ccc(C(=O)Nc3ccc(C)c(F)c3)cc2)C1=O -12%, CCOc1ccc(C(=O)Nc2ccc3nc(SCC(=O)N4CCc5ccccc54)sc3c2)cc1 5.4%, NC(=O)CSc1ncc2c(n1)-c1ccccc1N(Cc1ccc(F)cc1)S2(=O)=O -10.3%, Cc1ccc(-c2ccc(CCC(=O)O)n2-c2ccc(C(N)=O)cc2)cc1 -6.48%, CCOc1ccc(CNC(=O)c2nn(-c3ccc(OC)cc3)c(=O)c3c2c2ccccc2n3C)cc1 -14.4%, CC(=O)N1CCc2cc(S(=O)(=O)NC(Cc3ccccc3)C(=O)Nc3cc(C)ccc3C)ccc21 (configuration not stated) -19.3%, COc1ccc2c(c1)c1c(c(=O)n(Cc3ccccc3)c(=O)n1Cc1cccc(Cl)c1)n2C -10.1%, COc1ccccc1NC(=O)c1cnc(SCC(=O)N2CCOCC2)n(C)c1=O -16.2%, CCn1cc(C(=O)NCCCOC)c(=O)c2cc(S(=O)(=O)N3CCc4ccccc4C3)ccc21 -21.4%, Cc1cc(C)c2oc(-c3ccc(Cl)c(NC(=O)c4cccs4)c3)nc2c1 -14.8%, COc1ccc(-c2n[nH]c3c2cnc2ccc(F)cc23)cc1 -10.4%, CCCSc1nc(-c2ccccc2)[nH]c1S(=O)(=O)c1ccc(C)cc1 -12.5%, Cc1ccc(-c2c(C(=O)NCCc3ccccc3)oc(=O)c3ccccc23)cc1 -13.8%, COc1ccc(-c2cc3ccc(O)c(CN4CCCC4)c3oc2=O)cc1 -27.4%, CCOC(=O)C1CCCN(CC(=O)Nc2cc(C)c3c(=O)oc4ccccc4c3n2)C1 (configuration not stated) -11.2%, O=c1oc2ccc3ccccc3c2cc1-c1nnc(Nc2ccccc2F)s1 -2.62%, Cc1cc(C)cc(NC(=O)C2CCN(S(=O)(=O)c3cn(C)cn3)CC2)c1 -16.4%, CC1=Nc2cc(C(=O)N3CCC(C)CC3)ccc2Sc2ccc(Cl)cc21 -18.1%, Cn1cc(S(=O)(=O)N2CCCCCC2)cc1C(=O)Nc1ccc(Cl)c(C(F)(F)F)c1 0.631%, COc1ccc(NS(=O)(=O)c2cc3c(cc2C)N(C(C)=O)CCO3)cc1 -1.16%, Cc1cc2c(cc1NS(=O)(=O)c1cccc(C#N)c1)n(C)c(=O)c(=O)n2C -13.1%, Cc1ccc(=O)n(-c2ccccc2)c1 -11.4%, CCc1cccc(C)c1NC(=O)Cn1nnc(-c2nc(-c3ccccc3F)no2)c1N -21.5%, COc1ccc(CCNC(=O)c2ccc(Cn3c(=O)c4ccccc4n(Cc4cccc(F)c4)c3=O)cc2)cc1OC -8.33%, CCc1ccc(NC(=O)C2CCCN2S(=O)(=O)c2ccc3c(c2)CCCC(=O)N3)cc1 (configuration not stated) -13%, O=C1c2ccccc2CCc2ccccc21 -12.6%, CCC(CC)C(=O)Nc1cc(-c2ccccc2F)nn1-c1ccccc1 -2.66%, Cc1ccc(/C=C/c2onc(C)c2S(=O)(=O)N2CCC(C(=O)Nc3ccc(Br)c(C)c3)CC2)cc1 0.0684%, CNS(=O)(=O)c1cn(CC(=O)Nc2ccc(OC)cc2OC)cc1S(=O)(=O)NC -10.2%, Cc1ccc(S(=O)(=O)c2cn(CC(=O)Nc3cccc(C)c3)c3cc4c(cc3c2=O)OCO4)cc1 -0.722%, NS(=O)(=O)c1ccc(NC(=O)CSc2ccc3ccccc3n2)cc1 9.4%, Cc1ccc(CNS(=O)(=O)c2cc3c(cc2Cl)NC(=O)CO3)o1 -10%, CC1CCC(C(=O)NC(C(=O)OCC(=O)c2ccc(Br)cc2)C(C)C)CC1 (configuration not stated) -20.5%, CN(C(=O)c1ccc2c(Cl)c3c(nc2c1)CCC3)c1ccccc1F -12.2%, Cc1ccc(CNC(=O)c2nnc(Cc3ccc(Cl)cc3)o2)cc1 -3.45%, CCN(CC)C(=O)Cn1c(=O)n(-c2ccccc2)c(=O)c2c3c(sc21)CCC3 -2.3%, COc1ccccc1C(=O)Nc1ccc(C(=O)OCc2cc(=O)n3nc(C)sc3n2)cc1 6.82%, Cc1ccccc1/C=C(\C#N)c1nc(-c2ccc(Cl)cc2)cs1 -14.7%, Cc1csc2nc(-c3ccc(NS(=O)(=O)c4cc(F)ccc4F)cc3)cn12 -32%, COc1ccc2c(c1)Cc1sc(NC(=O)c3cccc(Br)c3)nc1-2 -7.39%, CC(=O)N1CCc2c(sc3c2c(=O)n(Cc2ccccc2)c(=O)n3Cc2cc(C)ccc2C)C1 -5.07%, CC1CN(C(=O)N2CCC(C(=O)NCCCc3ccccc3)CC2)c2ccccc2O1 (configuration not stated) -7.12%, Cc1c(Cl)cccc1Nc1nc2ccc(C(=O)c3ccccc3)cc2n2cnnc12 -13.3%, Cc1ccc(NC(=O)Cn2c(-c3cncs3)nc3ccccc32)c(Br)c1 -5.75%, Cc1ccc(CNC(=O)CN2C(=O)C3(SCC(=O)N3c3ccc(F)cc3)c3ccccc32)cc1 (configuration not stated) -23%, CCCCCn1c(CCNC(=O)c2cccc(C)c2)nc2ccccc21 -18.1%, CCC(=O)N1CCc2cc(CNS(=O)(=O)c3cccs3)ccc21 1.85%, CCCCOc1ccc(CNC(=O)c2ccc3c(c2)N(C)C(=O)C2CCCCN32)cc1 (configuration not stated) -17.4%, COc1ccc(CNC(=O)CCc2nc(-c3ccc(OC)cc3)no2)cc1 -10.1%, CCc1ccc(CNC(=O)C2CCCN(S(=O)(=O)c3ccc4c(ccn4C)c3)C2)cc1 (configuration not stated) -3.5%
